According to patent US20210100913A1, “ACTIVATABLE ANTI-CD166 ANTIBODIES AND METHODS OF USE THEREOF” (priority 2017, published 2021):

Experiments:
[1] = test system: head and neck squamous cell carcinoma (HNSCC); assay: phase 1/2 dose-escalation study: tumor response in a subject with HNSCC; format: in vivo, human; settings: for tumor burden: 5 mg/kg every 3 weeks, 41 mm at initial screening
[2] = pharmacokinetics of total and intact anti-CD166 activatable antibody and metabolites in serum of human subjects; format: in vivo

B1: Combination 55 (conjugate)
heavy: QITLKESGPTLVKPTQTLTLTCTFSGFSLSTYGMGVGWIRQPPGKALEWLANIWWSEDKHYSPSLKSRLTITKDTSKNQVVLTITNVDPVDTATYYCVQIDYGNDYAFTYWGQGTLVTVSS[… human IgG1 constant region …]
light: QGQSGQGLCHPAVLSAWESCSSGGGSSGGSAVGLLAPPGGLSGRSDNHGGSDIVMTQSPLSLPVTPGEPASISCRSSKSLLHSNGITYLYWYLQKPGQSPQLLIYQMSNLASGVPDRFSGSGSGTDFTLKISRVEAEDVGVYYCAQNLELPYTFGQGTKLEIKRTVAAPSVFIFPPSDEQLKSGTASVVCLLNNFYPREAKVQWKVDNALQSGNSQESVTEQDSKDSTYSLSSTLTLSKADYEKHKVYACEVTHQGLSSPVTKSFNRGEC
- response since initial screening, RECIST v1.1 classification ([1]; 5 mg/kg (AIBW) every 3 weeks): Partial Response
- change in tumor burden ([1]; 5 mg/kg (AIBW) every 3 weeks, initial screening (41 mm) to Cycle 3 visit, 9 weeks after first administration): −31.7%
- tumor burden ([1]; Cycle 3 visit (9 weeks)): 28 mm
- tumor burden ([1]; Cycle 6 visit (18 weeks)): 31.5 mm
- development of new tumors while on study ([1]; only target lesions at initial screening): not observed to develop any new tumors
- form in which anti-CD166 activatable antibody circulates in the serum ([2]; 0.25 to 4.0 mg/kg (AIBW) of Combination 55): predominantly in an intact form
- ratio of intact to total anti-CD166 activatable antibody for Dose 1 AUC0-tau and Cmax ([2]; across doses): approximately consistent
- dose trend of Cmin accumulation ratio for intact anti-CD166 activatable antibody ([2]; multiple dosing): did not trend with dose
- accumulation ratio of minimum plasma concentration (Cmin) (Dose 3:Dose 1) for intact anti-CD166 activatable antibody ([2]; multiple dosing every 21 days): ≤ 1.34
- intact and total anti-CD166 activatable antibody exposure (AUC0-tau and Cmax) versus dose ([2]; single dose): generally increased with increasing dose
